# In all, about 410,000 compounds went through this assay and about 6,400 (1.6%) were called active. Inconclusive results, whose numbers are uncertain, are shown with a selection of clear calls. The call rests on the fitted dose curve; in most records, active means well fitted inhibition curve with a large enough effect; inconclusive means small, poorly fitted or top-dose-only effect; inactive means no such curve, though single readings can be large or run the other way. No potency is given beside an inconclusive call; the fits are too rough.
# Target: Glucagon-like peptide 1 receptor (Homo sapiens) (UniProt P43220)
# Assay: qHTS of GLP-1 Receptor Inverse Agonists (Inhibition Mode); further: nearly all actives have a fitted effect of over 55% in size
# Conditions: HEK293 GLP-1R CRE-luciferase, luminescence, 24 h, GLP-1R form is constitutively active; activity change, negative = inhibition: at 38.3 µM (top of the series) unless noted
# Method in brief: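 Inverse agonism was detected as reduced cAMP-driven luciferase luminescence after 24 h compound treatment. The cells were HEK293 clones expressing constitutively active human GLP-1R with the reporter. Reporter-only and GPR119 cell lines served as counterscreen controls.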
# On the % scale 0 is the no-effect control and ±100 the full control effect; potency means the concentration at half of the fitted maximal effect; tags describe the fitted curve by direction and shape.
# Chain of UniProt P43220 (P43220 whole entry, looked up): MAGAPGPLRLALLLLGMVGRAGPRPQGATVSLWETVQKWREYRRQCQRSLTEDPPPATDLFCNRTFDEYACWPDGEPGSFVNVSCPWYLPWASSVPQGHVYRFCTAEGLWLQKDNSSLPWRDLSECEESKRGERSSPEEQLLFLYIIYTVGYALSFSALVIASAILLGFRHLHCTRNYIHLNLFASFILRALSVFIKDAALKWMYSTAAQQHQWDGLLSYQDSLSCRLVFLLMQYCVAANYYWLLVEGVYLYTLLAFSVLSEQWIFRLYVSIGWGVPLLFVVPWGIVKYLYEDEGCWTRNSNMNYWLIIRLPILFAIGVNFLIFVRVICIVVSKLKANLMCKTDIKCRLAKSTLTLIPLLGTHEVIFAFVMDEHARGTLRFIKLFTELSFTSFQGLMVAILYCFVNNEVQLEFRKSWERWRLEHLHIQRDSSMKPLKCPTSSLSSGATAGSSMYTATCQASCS
Compound,Potency,"activity change, negative = inhibition"
CC(C)c1ccc(S(=O)(=O)N2CCN(C(C)C(=O)NC3CCCC3)CC2)cc1 (stereo not drawn),"inconclusive [inhibitor, single point]",
Cc1c(Cc2ccccc2)sc(NC(=O)C(C)(C)C)c1C(N)=O,"inconclusive [inhibitor, single point]",
O=[N+]([O-])c1ccc(S(=O)(=O)c2ccccc2)nc1,"inconclusive [inhibitor, partial curve, poor fit]",
O=C(Nc1ccccc1C(=O)O)c1ncn[nH]1,,inactive: 93.1%
Cc1cccc(NC(=O)CN2CCN(CC(=O)Nc3ccc(-c4ccccc4)cc3)CC2)c1C,"inconclusive [inhibitor, single point]",
Cc1ccc(P(=O)(O)c2ccc(C)cc2)cc1,,inactive: -31.2%
CC(NC(=O)C(=O)N1CCCCC1)C(c1cccs1)N1CCN(c2ccccc2)CC1 (stereo not drawn),"inconclusive [inhibitor, partial curve, poor fit]",
COc1cccc(NC(=O)CSc2nnc(NC(=O)NC3CCCCC3)s2)c1,,inactive: -21.5%
O=[N+]([O-])c1ccccc1Nc1cccc(F)c1,"inconclusive [inhibitor, partial curve, poor fit]",
COc1cc(OC)c(NC(=O)C(C)n2nc(-c3ccc(C)c(C)c3)ccc2=O)cc1Cl (stereo not drawn),"inconclusive [inhibitor, single point]",
Cc1ccccc1C(C)(O)c1cnc(C)n1Cc1ccccc1 (stereo not drawn),"inconclusive [inhibitor, full curve]",
COc1c(C)cc(C(O)c2ncc(-c3ccccc3C(F)(F)F)[nH]2)cc1C (stereo not drawn),"inconclusive [inhibitor, single point]",
CCCCS(=O)(=O)N1CCCC(C(=O)Nc2ccc3c(c2)CCC3)C1 (stereo not drawn),"inconclusive [inhibitor, partial curve, poor fit]",
CCCn1c(CC)nc([N+](=O)[O-])c1Sc1ncn[nH]1,"inconclusive [inhibitor, single point]",
CC(=O)C1=C(O)CC(c2ccccc2)CC1=NCCc1ccccc1 (stereo not drawn),"inconclusive [inhibitor, partial curve, poor fit]",
Cc1ccc(-c2ncccc2OC(=O)C23CC4CC(CC(C4)C2)C3)cc1,"inconclusive [inhibitor, single point]",
Cc1ccc2c(c1)N(S(=O)(=O)c1cc(-c3cc(C)no3)ccc1C)CCO2,"inconclusive [inhibitor, partial curve, poor fit]",
COc1ccc(CCN=C2SCC(=O)N2Cc2ccccc2)cc1OC,"inconclusive [inhibitor, single point]",

# From PubChem BioAssay AID624417 (National Center for Advancing Translational Sciences (NCATS), 2012)
